# Test results reported in ChEMBL document CHEMBL5606460, “ASAP - DENV-2 NS2B-NS3 protease fluorescence single point” (2024).
# The whole screen tested about 2,000 compounds, of which about 110 (5.5%) showed an effect of 50% or more. Some of the results follow.
# Biological target: Genome polyprotein (dengue virus type 2) (UniProt P29990)
# [1] = Thailand/16681/1984, Concentration 25.0 uM, Number of replicates 1.0
smiles,measurement,setting,value
CC(C)Nc1nc2ccc(C(=O)Nc3ccc4cn[nH]c4n3)cc2[nH]1,inhibition,"Thailand/16681/1984, Concentration 49.5 uM, Number of replicates 2.0, Standard deviation 1.2194724472482659 %",2.16%
same,inhibition,"Thailand/16681/1984, Concentration 99.01 uM, Number of replicates 2.0, Standard deviation 0.5103679897359988 %",2.97%
same,inhibition,"Thailand/16681/1984, Concentration 198.0 uM, Number of replicates 2.0, Standard deviation 1.336009242024161 %",6.45%
O=Cc1ccc(N2CCC(C(=O)Nc3ccc(SC(F)(F)F)cc3)CC2)cc1,inhibition,[1],11.4%
Nc1ccc(-c2ccc3c(c2)B(O)OC3)cn1,inhibition,"Thailand/16681/1984, Concentration 49.5 uM, Number of replicates 2.0, Standard deviation 2.7620048716047796 %",3.85%
same,inhibition,"Thailand/16681/1984, Concentration 99.01 uM, Number of replicates 2.0, Standard deviation 2.6667361352307544 %",4.32%
same,inhibition,"Thailand/16681/1984, Concentration 198.0 uM, Number of replicates 2.0, Standard deviation 1.9389477268925173 %",5.1%
CC(C)(C)N(Cc1ccsc1)C(=O)C1CCN(c2ccc(C=O)cc2)CC1,inhibition,[1],15%
O=Cc1ccc(N2CCC(C(=O)N3CCN(C(=O)[C@@H]4COc5ccccc5O4)CC3)CC2)cc1,inhibition,[1],12.9%
CCc1noc2ncc(S(=O)(=O)N3CCCN(c4ncccc4C(N)=O)CC3)cc12,inhibition,"Thailand/16681/1984, Concentration 49.5 uM, Number of replicates 2.0, Standard deviation 1.8356788443215486 %",-2.47%
same,inhibition,"Thailand/16681/1984, Concentration 99.01 uM, Number of replicates 2.0, Standard deviation 2.074466218905688 %",-1.93%
same,inhibition,"Thailand/16681/1984, Concentration 198.0 uM, Number of replicates 2.0, Standard deviation 1.9609356323935294 %",-1.82%
O=Cc1ccc(N2CCC(C(=O)N(CCN3CCOCC3)Cc3ccco3)CC2)cc1,inhibition,[1],13%
CNS(=O)(=O)NCCNC(=O)c1ccc(O)c(NC(=O)c2ccncc2F)c1C,inhibition,"Thailand/16681/1984, Concentration 49.5 uM, Number of replicates 2.0, Standard deviation 1.0126660380939199 %",-5.48%
same,inhibition,"Thailand/16681/1984, Concentration 99.01 uM, Number of replicates 2.0, Standard deviation 1.2028983676587508 %",-4.42%
same,inhibition,"Thailand/16681/1984, Concentration 198.0 uM, Number of replicates 2.0, Standard deviation 0.3461371468355998 %",-1.96%
Cc1cc(O)c2cccc(Cl)c2n1,inhibition,"Thailand/16681/1984, Concentration 49.95 uM, Number of replicates 2.0, Standard deviation 6.548831311735657 %",-4.97%
same,inhibition,"Thailand/16681/1984, Concentration 99.9 uM, Number of replicates 2.0, Standard deviation 6.132588319345643 %",-2.66%
C[C@@H](c1cccc2ccccc12)N(C)C(=O)C1CCN(c2ccc(C=O)cc2)CC1,inhibition,[1],15.1%
O=Cc1ccc(N2CCC(C(=O)NCc3cc(F)c(F)c(F)c3)CC2)cc1,inhibition,[1],15%
CNC(=O)c1nc(C)c(C)c(N2CC[C@@H](NC(=O)c3[nH]cnc3C(C)(C)C)C2)n1,inhibition,"Thailand/16681/1984, Concentration 49.5 uM, Number of replicates 2.0, Standard deviation 3.9729285049821863 %",-1.49%
same,inhibition,"Thailand/16681/1984, Concentration 99.01 uM, Number of replicates 2.0, Standard deviation 2.6762452228980855 %",-0.037%
same,inhibition,"Thailand/16681/1984, Concentration 198.0 uM, Number of replicates 2.0, Standard deviation 2.7559764814217207 %",2.57%
Cc1cc(-n2nccc2NC(=O)[C@]2(c3ccc(F)cc3)CCCNC2)ncn1,inhibition,"Thailand/16681/1984, Concentration 49.5 uM, Number of replicates 2.0, Standard deviation 3.3001363391540566 %",-3.84%
same,inhibition,"Thailand/16681/1984, Concentration 99.01 uM, Number of replicates 2.0, Standard deviation 7.095417479243068 %",-3.91%
same,inhibition,"Thailand/16681/1984, Concentration 198.0 uM, Number of replicates 2.0, Standard deviation 21.37060707909394 %",10.1%
Cc1cc(C(=O)NC2CC2)c2cccc(Cl)c2n1,inhibition,"Thailand/16681/1984, Concentration 49.95 uM, Number of replicates 2.0, Standard deviation 4.773629949719906 %",-7.48%
same,inhibition,"Thailand/16681/1984, Concentration 99.9 uM, Number of replicates 2.0, Standard deviation 4.187928177193353 %",-6.74%
CSc1ncc(C#N)c(NC(=O)C2CCN(c3ccc(C=O)cc3)CC2)n1,inhibition,[1],13%
O=Cc1ccc(N2CCC(C(=O)Nc3ccccc3OCC(F)(F)F)CC2)cc1,inhibition,[1],13.4%
NCc1ccc(/C=C/C(=O)C(=O)N2CCOCC2)cc1,inhibition,"Thailand/16681/1984, Concentration 49.5 uM, Number of replicates 2.0, Standard deviation 0.4887874545992688 %",28.7%
same,inhibition,"Thailand/16681/1984, Concentration 99.01 uM, Number of replicates 2.0, Standard deviation 0.17235835687354284 %",48.5%
same,inhibition,"Thailand/16681/1984, Concentration 198.0 uM, Number of replicates 2.0, Standard deviation 0.3206181572929207 %",70.2%
COCCN(Cc1c(C)nn(C)c1C)C(=O)C1CCN(c2ccc(C=O)cc2)CC1,inhibition,[1],11.9%
Cc1cc(CO)c2cccc(Cc3cccc(NC(=O)c4ccc(-c5ccccn5)s4)c3)c2n1,inhibition,"Thailand/16681/1984, Concentration 49.95 uM, Number of replicates 2.0, Standard deviation 0.8654494459321714 %",-0.837%
same,inhibition,"Thailand/16681/1984, Concentration 99.9 uM, Number of replicates 2.0, Standard deviation 0.5338092239407879 %",2.89%
Cc1cccc(C(=O)Nc2cc(N)ccc2C)c1,inhibition,"Thailand/16681/1984, Concentration 49.95 uM, Number of replicates 2.0, Standard deviation 6.360452558421487 %",-5.42%
same,inhibition,"Thailand/16681/1984, Concentration 99.9 uM, Number of replicates 2.0, Standard deviation 7.5252738299451165 %",-5.57%
COc1ccc(S(=O)(=O)n2nc(OC(=O)c3cccc(-c4ccccc4Cl)c3)cc2N)cc1,inhibition,"Thailand/16681/1984, Concentration 49.5 uM, Number of replicates 2.0, Standard deviation 1.4490153953002987 %",18.8%
same,inhibition,"Thailand/16681/1984, Concentration 99.01 uM, Number of replicates 2.0, Standard deviation 0.6098804079928887 %",22.4%
same,inhibition,"Thailand/16681/1984, Concentration 198.0 uM, Number of replicates 2.0, Standard deviation 5.725656788050292 %",25.3%
O=Cc1ccc(N2CCC(C(=O)Nc3ccc(N4CCOCC4=O)cc3)CC2)cc1,inhibition,[1],9.21%
CC(C)(C)OC(=O)[C@H]1CCCN1C(=O)C1CCN(c2ccc(C=O)cc2)CC1,inhibition,[1],11.5%
CCN(CCOc1ccccc1C)C(=O)C1CCN(c2ccc(C=O)cc2)CC1,inhibition,[1],14%
NCc1cn(C2CCN(c3nc(-c4ccccc4)cs3)CC2)nn1,inhibition,"Thailand/16681/1984, Concentration 49.5 uM, Number of replicates 2.0, Standard deviation 0.032513427640456005 %",-4.62%
same,inhibition,"Thailand/16681/1984, Concentration 99.01 uM, Number of replicates 2.0, Standard deviation 1.6651164489567518 %",-3.29%
same,inhibition,"Thailand/16681/1984, Concentration 198.0 uM, Number of replicates 2.0, Standard deviation 1.091599962537426 %",0.094%
Cc1cc(CO)c2cccc(Cc3ccccc3C(=O)N3CCC(C(=O)O)CC3)c2n1,inhibition,"Thailand/16681/1984, Concentration 49.95 uM, Number of replicates 2.0, Standard deviation 0.622352552136526 %",0.457%
same,inhibition,"Thailand/16681/1984, Concentration 99.9 uM, Number of replicates 2.0, Standard deviation 0.7955477281018075 %",4.68%
O=Cc1ccc(N2CCC(C(=O)Nc3ccc(Cl)c(Cl)c3F)CC2)cc1,inhibition,[1],14.9%
Cc1ccc(C(=O)NC[C@@H](O)CN2CCCC2)cc1OCCN,inhibition,"Thailand/16681/1984, Concentration 49.5 uM, Number of replicates 2.0, Standard deviation 1.6879511900114692 %",-2.97%
same,inhibition,"Thailand/16681/1984, Concentration 99.01 uM, Number of replicates 2.0, Standard deviation 0.9187804769943255 %",-1.71%
same,inhibition,"Thailand/16681/1984, Concentration 198.0 uM, Number of replicates 2.0, Standard deviation 1.3447286505327236 %",-1.06%
O=Cc1ccc(N2CCC(C(=O)Nc3nnc(-c4ccncc4)s3)CC2)cc1,inhibition,[1],3.72%
O=C(Nc1ccc(O)cc1)c1cccc(OCc2c(Cl)cccc2Cl)c1,inhibition,"Thailand/16681/1984, Concentration 49.5 uM, Number of replicates 2.0, Standard deviation 0.38856258601515087 %",5.85%
same,inhibition,"Thailand/16681/1984, Concentration 99.01 uM, Number of replicates 2.0, Standard deviation 1.1651546847054868 %",9.28%
same,inhibition,"Thailand/16681/1984, Concentration 198.0 uM, Number of replicates 2.0, Standard deviation 0.8272279968409002 %",12.6%
